Data taken from patent US20250263491A1, “ANTI-EGFR ANTIBODY DRUG CONJUGATES” (priority 2016, published 2025).
Where a chain is given by its changes, count along the chain named.

B1: AbG-TX (conjugate)
heavy: EVQLQESGPGLVKPSQTLSLTCTVSGYSISNDFAWNWIRQLPGKGLEWMGYISYKGNTRYQPSLKSRITISRDTSKNQFFLKLNSVTAADTATYYCVTASRGLPYWGQGTLVTVSS[here human IgG1 constant region without letters]
light: DIQMTQSPSSMSVSVGDRVTITCHSSQDITYNIGWLQQKPGKSFKGLIYHGANLDDGVPSRFSGSGSGTDYTLTISSLQPEDFATYYCVQYDEFPWTFGGGTKLEIKRTVAAPSVFIFPPSDEQLKSGTASVVCLLNNFYPREAKVQWKVDNALQSGNSQESVTEQDSKDSTYSLSSTLTLSKADYEKHKVYACEVTHQGLSSPVTKSFNRGEC
B2: AbG-AAA (conjugate)
heavy: B1 heavy
light: B1 light
B3: AbG-AAD (conjugate)
heavy: B1 heavy
light: B1 light
modifications: non-natural residues
B4: AbK-CZ (conjugate)
heavy: B1 heavy with N31R, L41P, K55N, L103F, Y105W
light: B1 light with I33V, A52S, D56H, E93D
B5: AbK-TX (conjugate)
heavy: B1 heavy with N31R, L41P, K55N, L103F, Y105W
light: B1 light with I33V, A52S, D56H, E93D
B6: AbK-TV (conjugate)
heavy: B1 heavy with N31R, L41P, K55N, L103F, Y105W
light: B1 light with I33V, A52S, D56H, E93D
B7: AbK-YY (conjugate)
heavy: B1 heavy with N31R, L41P, K55N, L103F, Y105W
light: B1 light with I33V, A52S, D56H, E93D
B8: AbK-AAA (conjugate)
heavy: B1 heavy with N31R, L41P, K55N, L103F, Y105W
light: B1 light with I33V, A52S, D56H, E93D
B9: AbK-AAD (conjugate)
heavy: B1 heavy with N31R, L41P, K55N, L103F, Y105W
light: B1 light with I33V, A52S, D56H, E93D
modifications: non-natural residues

Columns and labels:
[1] = tested on: Mcl-1−/− MEFs expressing huEGFR; assay: Cell viability (CellTiter-Glo) of mcl-1-/- MEFs expressing huEGFR; type: cell-based, mouse; conditions: 96 hours treatment, read-out: huEGFR+ mcl-1−/− MEF EC50
Text: (§1) The cytotoxicity of the anti-EGFR antibodies AbB, AbG, AbK, and AbL as Bcl-xL ADCs against the EGFR positive non-small cell lung cancer cells (NCI-H1650) was compared to non-targeting MSL109 isotype matched exemplary ADCs. To further evaluate the in vitro efficacy of these exemplary EGFR-targeted Bcl-xL-ADCs, human EGFR was over-expressed in mcl-1^−/− mouse embryonic fibroblasts (MEFs). Mcl-1 refers to the gene myeloid cell leukemia 1. Mcl-1^−/− MEFs are dependent upon Bcl-xL for survival (Lessene et al., 2013, Nature Chemical Biology 9:390-397).
(§2) Retroviral supernatants were produced through transfection of the GP2-293 packaging cell line (Clontech) with the retroviral construct pLVC-IRES-Hygro (Clontech) containing huEGFR sequence or the empty vector utilizing FuGENE 6 transfection reagent (Roche Molecular Biochemicals, Mannheim, Germany). After 48 hours of culture, virus-containing supernatant was harvested and applied to mcl-1^−/− MEFs in 75 cm^2 culture flasks (0.5×10^6 per flask) for a further 48 hours in the presence of polybrene (8 μg/ml; Sigma). Mcl-1^−/− MEFs were washed and selected after 3 days with 250 µg/ml hygromycin B (Invitrogen) in the full complement of media. The expression of huEGFR was confirmed by flow cytometry and compared to the parental cell line or those transfected with the empty vector.
(§3) Mcl-1^−/− MEFs expressing huEGFR or the pLVX empty vector (Vct Ctrl) were treated with AB033-targeted Bcl-xL-ADCs, AB033 alone or MSL109-targeted Bcl-xL-ADCs for 96 hours in DMEM containing 10% FBS. For the assay, the cells were plated at 250 cells per well in 384-well tissue culture plates (Corning, Corning, NY) in a total volume of 25 μL of assay media (DMEM and 10% HI FBS). The plated cells were treated with a 4-fold serial dilution of the Antibody Drug Conjugates of interest from either 1 μM or 0.5 μM to either 1 50 μM or 25 μM, respectively 1 μM to 1 μM dispensed by an Echo 550 Acoustic Liquid Handler (Labcyte). Each concentration was tested in at least three replicates for the Mcl-1^−/− MEF huEGFR cell line and for the Mcl-1^−/− MEF vector cell line. The fraction of viable cells following 96 hours of Antibody Drug Conjugate treatment at 37° C. and 5% CO2 was determined using the CellTiter-Glo Luminescent Cell Viability Assay according to the manufacturer's recommendations (Promega Corp., Madison, WI). The plates were read in a Perkin Elmer Envision using a Luminescence protocol with 0.1 see integration time. The replicate values for each dilution point were averaged and the EC50 values for the Antibody Drug Conjugates were generated by fitting the data with GraphPad Prism 5 (GraphPad Software, Inc.) to a sigmoidal curve model using linear regression, Y=((Bottom-Top)/(1+((x/K)^n)))+Top, where Y is the measured response, x is the compound concentration, n is the Hill Slope and K is the EC50 and Bottom and Top are the lower and higher asymptotes respectively. Visual inspection of curves was used to verify curve fit results. Mcl-1^−/− MEFs were obtained from David C. S. Huang of the Walter and Eliza Hall Institute of Medical Research.

[2] = tested on: NCI-H1650 cells; assay: NCI-H1650 eGFP spheroid growth (GFP fluorescence and CellTiter-Glo 3D); type: cell-based; conditions: spheroids, 6 days; for H1650 CTG-3D EC50: CellTiter-Glo 3D luminescence; for H1650 GFP Flourescence EC50: final GFP fluorescence (Incucyte Zoom)
Text: as §1
NCI-H1650 cells stably overexpressing eGFP were maintained in RPMI media (Invitrogen cat #22400) containing 10% Fetal Bovine Serum (Invitrogen cat #10082). The cells were removed from plates with Trypsin and plated at 300 cells/well in 25 μL of the same media in Corning 384 well spheroid plates (cat #3830). The plates were centrifuged at 500×g for 5 minutes and placed in an Essen INCUCYTE Zoom Live Cell Analysis System in a 37° C. with 5% CO2 and 95% humidity. The cells were allowed to form spheroids for 3 days before dosing with an equal volume of the antibody drug conjugates at 2× the indicated concentration. The spheroids were incubated for an additional 6 days while monitoring growth and GFP Fluorescence in the Incucyte Zoom prior to addition of 40 μL of Promega CELLTITER-GLO 3D (cat #G968B) and subsequent luminescent reading. IC50s were determined from both the final GFP fluorescence monitored by the Incucyte Zoom (referred to as “H1650 GFP Fluorescence EC50 (μg/mL)” in Table 8) and the chemiluminescent readings from the CellTiter-Glo reagent (referred to as “H1650 CTG-3D EC50 (μg/mL)” in Table 8).

[3] = tested on: NCI-H1650 xenograft; assay: NCI-H1650 flank xenograft model of NSCLC in mice; type: in vivo, mouse; conditions: Table 10; 10 mg/kg/day QDx1/IP
[4] = Size exclusion chromatography, % aggregate fraction of ADC; type: physicochemical; conditions: absorbance at 280 nm
Method: The DAR and percentage aggregation of exemplary ADCs synthesized as described in Example 3, above, were determined by LC-MS and size exclusion chromatography (SEC), respectively.
Size exclusion chromatography (SEC) was performed using a Shodex KW802.5 column in 0.2M potassium phosphate pH 6.2 with 0.25 mM potassium chloride and 15% isopropyl alcohol at a flow rate of 0.75 ml/min. The peak area absorbance at 280 nm was determined for each of the high molecular weight and monomeric eluents by integration of the area under the curve. The % aggregate fraction of the conjugate sample was determined by dividing the peak area absorbance at 280 nm for the high molecular weight eluent by the sum of the peak area absorbances at 280 nM of the high molecular weight and monomeric eluents multiplied by 100%.

[5] = tested on: Mcl-1−/− MEF vector cell line (pLVX empty vector, Vct Ctrl); assay: Cell viability (CellTiter-Glo) of mcl-1-/- MEF vector control; type: cell-based, mouse; conditions: 96 hours treatment
Text: as §1, §2, §3

| Molecule | EC50 [1] [nM] | H1650 CTG-3D EC50 [2] [µg/mL] | H1650 GFP Flourescence EC50 [2] [µg/mL] | TGImax [3] [%] | % Agg (by SEC) [4] [%] | EC50 [5] [nM] |
| --- | --- | --- | --- | --- | --- | --- |
| B1 | 5.3 | 0.15 | 0.51 | 88 | 1.6 | 368 |
| B2 | 220 | 0.12 | 0.17 | 76 | 17.5 | > 500 |
| B3 | 108 | 0.02 | 0.03 | – | 2.5 | > 500 |
| B4 | 0.1 | 0.08 | 0.21 | 77 | 3.3 | > 500 |
| B5 | 0.79 | 1.07 | 1.47 | – | 1.6 | > 1000 |
| B6 | 0.15 | 0.05 | 0.16 | – | 2.6 | 455 |
| B7 | 47 | 0.49 | 1.09 | – | 20 | > 1000 |
| B8 | 3.4 | 0.11 | 0.16 | 84 | 20.4 | > 1000 |
| B9 | 0.4 | 0.01 | 0.06 | – | 3.6 | > 500 |
